Among all 150,000 compounds or so, about 540 (0.36%) showed an effect of 50% or more. Some of the results follow.
tested on: Plasmodium falciparum; assay: Primary screen in NF54 nanoGlo assay, in single point, at 2uM, 72h; a lower Z score goes with more inhibition; type: functional, Erythrocyte; details: timepoint 72 hour

SMILES | % Inhibition [%] | Z score
O=C1N(Cc2ccc(F)cc2)CCC[C@@]1(O)CN1CCCCCC1 | 11 | -1.44
Cc1nc(CN2CCC3(CCC(=O)N(CCc4ccccn4)C3)CC2)n(C)n1 | -6 | 0.95
COc1ccc2cc1OCCn1cc(nn1)CO[C@H]1CN(C(=O)CCn3cncn3)C[C@@H]1NC2=O | 6 | -0.82
NS(=O)(=O)c1ccc(CNC(=O)[C@]2(c3ccccc3)CC23CCCC3)cc1 | -12 | 2.06
O=C(Cc1n[nH]c(=O)c2ccccc12)NC[C@H]1CCCO1 | -5 | 0.45
CC1CC(C)CN(C(=O)Cn2ncc3ccc(Cl)cc32)C1 (stereo not drawn) | -4 | 0.62
CC1CCN(c2cc(N3CCNCC3)ncn2)CC1 | 0 | -0.04
CCC(C)C(NC(=O)OCc1ccccc1)C(=O)N1CCC(C(N)=O)CC1 (stereo not drawn) | -6 | 0.53
CC(=O)Nc1nc(C)c(S(=O)(=O)N2CCOCC2)s1 | 5 | -0.51
CN(CCCc1ccccc1)S(=O)(=O)N1CCCC1 | 1 | -0.06
c1cnc(N2CCC3(CCCN3Cc3ccc(-c4cc[nH]n4)s3)CC2)nc1 | -11 | 1.74
Cc1c(C)n(C2CCCC2)c2ncnc(N3CC[C@H](C(N)=O)C3)c12 | -2 | 0.34
N#Cc1ncn(Cc2coc(-c3c(F)cccc3F)n2)c1C#N | -14 | 2.31
O=C(CN1CCN(CC(=O)N2CCC[C@H](c3nc4ccccc4s3)C2)CC1)NC1CC1 | -13 | 1.61
CCN1CCN(C2(C(=O)N3CC[C@H](COC)C3)Cc3ccccc3C2)CC1 | -1 | 0.25
Cc1ccn2c(C(=O)NC(Cc3ccncc3)[C@H]3C[C@@H](O)C3)nnc2n1 (stereo partly drawn) | -17 | 1.87
Cc1cccc2nc(C(=O)N[C@H]3C[C@H](c4nnc(CN(C)C)n4C)C3)c(F)n12 | -12 | 2.32
CN1CCC(Nc2ncnc3c2cnn3C)C1c1ccc(Cl)cc1 (stereo not drawn) | 45 | -5.36
CC(C)=CCNC(=O)N1CCC(F)(F)C1 | 1 | -0.14
COc1ccc(-c2cnnc(-n3nc(C)c4c3NC(=O)C[C@@H]4c3ccc(F)cc3F)n2)cc1 | 14 | -2.68
Cc1noc([C@H]2CCN(C(=O)Cn3cccn3)C2)n1 | -3 | 0.45

SMILES | % Inhibition [%] | Z score
CC(C)[C@H](Oc1ccc(Cl)cc1)C(=O)N(C)Cc1c[nH]cn1 | -2 | 0.34
N#Cc1ccc(CN[C@@H](Cc2ccccc2)C2CC2)c(F)c1 | -1 | 0.14
CCC(CC(=O)N1CCC2(C1)NC(=O)NC2=O)c1ccc(C)cc1 (stereo not drawn) | -1 | 0.15
CN(C)C(=O)N1CCC(c2nc(CN3CCc4ccccc43)no2)CC1 | -6 | 0.81
COCC(=O)NC1(CC2CC2)CCN(C(=O)COc2ccccc2)CC1 | -6 | 1.18
FC(F)(F)c1sccc1CNCCc1nnc2n1CCC2 | -1 | 0.14
C=C(CNC(=O)N[C@H](CO)CC1OCCO1)c1ccccc1 | 4 | -0.49
C/C(=C\c1nsc(Nc2ccc(F)c(Cl)c2)n1)NCc1ccc(C)cc1 | -5 | 0.7
CCC(C)N(Cc1ccc(C)cc1C)CC(O)COCc1ccccc1 (stereo not drawn) | -1 | 0.09
O=C(NC[C@H]1Cn2cc(-c3ccccc3)nc2CO1)c1ccc2c(c1)OCO2 | -1 | 0.14
COC(=O)C1NS(=O)(=O)c2ccc(Cl)cc2C1(O)c1ccccc1F (stereo not drawn) | 39 | -5.7
Cc1[nH]c(=O)c(C#N)c(C)c1CCC(=O)N1CC(C)CC(C)C1 (stereo not drawn) | -15 | 1.55
O=C([C@H]1C[C@@H](F)CN1S(=O)(=O)c1ccc(F)c(Cl)c1)N1CCOCC1 | -16 | 2.15
FC(F)(F)c1cc([C@@H](NCc2ccon2)C2CC2)ccc1Cl | -5 | 0.41
CCCc1cc(C(=O)N2CCC3(CC2)CN([C@@H](C)CCC)C(=O)O3)[nH]n1 | 20 | -2.79
COc1ccc(-c2nnc(Cc3nc(-c4ccc(Cl)cc4)no3)o2)cc1OC | -11 | 1.44
CCC(C)C(CO)NCc1cnc(C2CCC2)s1 (stereo not drawn) | -1 | 0.13
Cc1ccc(C(C)NC(=O)NCC2CC(=O)N(C3CC3)C2)cc1F (stereo not drawn) | -6 | 0.62
O=C(c1ccc2ccccc2c1)N1CCn2c(nnc2C(F)(F)F)C1 | -12 | 1.14
Cc1nn(C)c2nc(NCCS(=O)(=O)N(C)C)sc12 | -7 | 1.29
C=CCN(CC=C)c1ncc(C(N)=O)cc1Cl | -3 | 0.38

SMILES | % Inhibition [%] | Z score
Cc1cc(C)nc(NC[C@H](O)COc2ccc(F)cc2)n1 | 5 | -0.6
Cc1n[nH]c(C)c1CN[C@@H](C(C)C)[C@H](O)C(F)(F)F | -2 | 0.25
COc1ccccc1C(=O)N1CCN(c2cc(=O)n(C)c(=O)n2C)CC1 | -2 | 0.24
Cc1ccc(CNc2nnc(CCC(C)C)o2)nc1 | 3 | -0.61
Cc1nc(C)c(CC(=O)N[C@H]2COCC[C@@H]2Oc2ccccn2)s1 | -3 | 0.35
COCCn1ccc2ccn(CC3CC3)c2c1=O | -18 | 1.62
O=C1NC(=O)C2(CCN(C(=O)c3noc4c3CCCC4)CC2)N1 | 30 | -3.26
Cc1ccc(CNC(=O)c2ccc(-n3nc(C(F)(F)F)c4c3CCCC4)cc2)cc1 | -7 | 0.85
O=C(O)[C@@H]1CCCCN1Cc1ccc2occc2c1 | -17 | 2.26
OCC#Cc1ccc(OC(F)(F)F)cn1 | -8 | 1.19
CCCC[C@H](NC(=O)N1CCN(c2ncc[nH]c2=O)CC1)c1cccnc1 | -9 | 1.83
CCn1ccc(NC(=O)c2ccco2)n1 | -3 | 0.49
COC(=O)C(C)(C)NC(=O)c1ccccc1 | 33 | -3.71
COc1cc([C@H]2CC(=O)Nc3c2ncn3-c2cccnc2)ccc1O | 0 | -0.06
O=C(Nc1ccc(N2CCOCC2)cc1)C(C1CC=CCC1)N(Cc1cccnc1)C(=O)Cn1nnc2ccccc21 (stereo not drawn) | 35 | -3.99
CN(CCC[C@H]1CCCO1)CCn1cnc2ccccc21 | -26 | 2.83
O=C(N[C@H]1CCN(c2ccc(C(F)(F)F)cn2)C1)c1cnccn1 | -12 | 2.32
Cc1nc(CNC(=O)[C@H]2CCC(=O)N(Cc3ccccn3)C2)sc1C | 12 | -2.02
COC(=O)[C@@H]1C[C@H](O)CCN1Cc1ccccc1C#Cc1ccccc1 | -1 | 0.12
Cc1ccncc1NC(=O)[C@@]1(C)CC1(Cl)Cl | -12 | 1.61
O=C(CCC(=O)N1CCCCCC1)NCC[C@H]1CCCOC1 | -13 | 1.48

SMILES | % Inhibition [%] | Z score
CCc1cc(NC2CCOC3(CCOC3)C2)nc(C)n1 (stereo not drawn) | -6 | 1.2
COC(=O)C1CC(Oc2ccccc2F)CN1C(=O)NC(C)(C)C (stereo not drawn) | -3 | 0.52
O=C(NCCc1ccc(Cl)cc1)c1ccc(Cn2c(=O)c3ccccc3n(Cc3ccccc3Cl)c2=O)cc1 | -2 | 0.32
COc1cccc(-c2nccn2[C@H]2CCc3[nH]ncc3C2)c1OC | -13 | 1.56
O=C1CC[C@H](C(=O)N2CC=C(c3ccc(Cl)cc3)CC2)CN1 | -5 | 0.9
O=C(NCc1ccc2c(c1)OCO2)c1cc(-c2ccc(F)cc2)ns1 | -5 | 0.6
N#Cc1ccc(C(=O)Nc2ccc3n(c2=O)C[C@H]2C[C@@H]3CN(C(=O)c3ccccn3)C2)cc1 | -4 | 0.44
Cc1nc(-c2ccco2)ccc1C(=O)N1CCN(CCO)CC1 | -3 | 0.35
O=C(NCCN1CCCC1)C1CCN(c2cnc(N3CCCC3)nc2)CC1 | -16 | 1.81
CCC(C)(C)CNCC1CCOC1c1c(C)nn(C)c1C (stereo not drawn) | 24 | -2.74
CC(NCC1CCN(S(C)(=O)=O)C1)c1ccsc1 (stereo not drawn) | -10 | 1.34
O=C(O)[C@@H]1CCCCN1Cc1ccsc1Cl | -1 | 0.18
COc1ccc(CN2CCNC(=O)[C@@H]2CC(=O)NCc2ccc3c(c2)CCN3C)c(C)c1C | -5 | 0.78
Cc1cccc([C@H](C)NC(=O)COC(C)C)n1 | -17 | 1.72
CCCC[C@@]1(O)COC2(CN(C(=O)c3ccn(CC)n3)C2)C1 | -4 | 0.61
CCN(CC)c1ncc2c(n1)CC[C@H](C(=O)NCCC1CCN(C)CC1)C2 | 12 | -2.21
O=C(COC[C@H]1CCCO1)Nc1nccc(-c2cncc(F)c2)n1 | 3 | -0.63
COc1ccc(-c2cc(NC(=O)c3cc(-c4ccccc4)on3)n([C@H]3CCS(=O)(=O)C3)n2)cc1OC | -6 | 0.74
CCOc1cccc2c1OCC(=O)N(c1ccc(F)cc1C)C2 | -11 | 1.24
O=C(Cc1ccsc1)NCc1cccnc1Oc1ccccc1 | 29 | -3.27
Cc1cc(C)nc(CCNC(=O)[C@H]2CC(=O)N(C)C2(C)C)n1 | -3 | 0.4

Reference: ChEMBL document CHEMBL4888484, “Replenishing the malaria drug discovery pipeline: Screening and hit evaluation of the MMV Hit Generation Library 1 (HGL1) against asexual blood stage Plasmodium falciparum ,using a nano luciferase reporter read-out” (2022)
